One block for each binder: values may come before it.
Columns and labels:
[1] = target: T1, Full length human TfR on CHO cells (human, UniProt P02786); assay: FACS MFI
T1 construct: also called CHO + huTfR; CHO + hTfR

Cyno TfR ECD Avi-His = target: T2, Cyno TfR ECD Avi-His (cynomolgus macaque, UniProt Q5RDH6 89-760 (Pongo abelii entry), biotin on the Avi tag (BirA) where captured on streptavidin); assay: ELISA OD450
T2 construct: also called Cyno TfR Avi-His; cyno TfR Avi-His
T2 chain: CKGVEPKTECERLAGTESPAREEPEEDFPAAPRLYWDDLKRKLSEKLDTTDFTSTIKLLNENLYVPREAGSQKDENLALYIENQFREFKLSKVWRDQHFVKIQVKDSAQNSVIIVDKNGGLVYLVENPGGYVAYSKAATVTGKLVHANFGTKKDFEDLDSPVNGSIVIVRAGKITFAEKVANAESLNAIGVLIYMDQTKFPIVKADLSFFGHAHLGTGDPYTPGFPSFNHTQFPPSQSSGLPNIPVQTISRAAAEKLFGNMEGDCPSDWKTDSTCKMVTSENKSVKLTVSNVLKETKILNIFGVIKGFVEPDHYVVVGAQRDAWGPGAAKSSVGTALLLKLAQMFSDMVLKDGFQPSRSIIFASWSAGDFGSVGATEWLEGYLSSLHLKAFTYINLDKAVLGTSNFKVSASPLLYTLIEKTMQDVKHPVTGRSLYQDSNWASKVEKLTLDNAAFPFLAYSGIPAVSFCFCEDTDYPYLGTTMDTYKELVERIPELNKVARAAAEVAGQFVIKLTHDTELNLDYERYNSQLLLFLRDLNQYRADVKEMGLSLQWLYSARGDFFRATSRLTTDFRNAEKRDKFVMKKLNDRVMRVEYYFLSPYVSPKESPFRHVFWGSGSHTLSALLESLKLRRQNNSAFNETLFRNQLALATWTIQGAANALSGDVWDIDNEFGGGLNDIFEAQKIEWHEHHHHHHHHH

[2] = target: T3, Mouse TfR (muTfR) ECD Avi-His (mouse, UniProt Q62351, biotin on the Avi tag (BirA) where captured on streptavidin); assay: ELISA OD450
T3 construct: also called MuTfR Avi-His

[3] = target: T4, huTfR Apical Domain-Avi-His (human, biotin on the Avi tag (BirA) where captured on streptavidin); assay: ELISA OD450
T4 construct: also called huTfR apical Avi-His; hTfR Apical
T4 chain: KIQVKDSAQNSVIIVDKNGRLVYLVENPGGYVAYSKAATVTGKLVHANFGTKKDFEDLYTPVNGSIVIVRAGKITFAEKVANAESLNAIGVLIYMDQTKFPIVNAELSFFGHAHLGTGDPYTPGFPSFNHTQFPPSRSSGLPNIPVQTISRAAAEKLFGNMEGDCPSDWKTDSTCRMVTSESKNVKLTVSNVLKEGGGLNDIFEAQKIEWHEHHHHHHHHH

T1 sequence (P02786 whole entry): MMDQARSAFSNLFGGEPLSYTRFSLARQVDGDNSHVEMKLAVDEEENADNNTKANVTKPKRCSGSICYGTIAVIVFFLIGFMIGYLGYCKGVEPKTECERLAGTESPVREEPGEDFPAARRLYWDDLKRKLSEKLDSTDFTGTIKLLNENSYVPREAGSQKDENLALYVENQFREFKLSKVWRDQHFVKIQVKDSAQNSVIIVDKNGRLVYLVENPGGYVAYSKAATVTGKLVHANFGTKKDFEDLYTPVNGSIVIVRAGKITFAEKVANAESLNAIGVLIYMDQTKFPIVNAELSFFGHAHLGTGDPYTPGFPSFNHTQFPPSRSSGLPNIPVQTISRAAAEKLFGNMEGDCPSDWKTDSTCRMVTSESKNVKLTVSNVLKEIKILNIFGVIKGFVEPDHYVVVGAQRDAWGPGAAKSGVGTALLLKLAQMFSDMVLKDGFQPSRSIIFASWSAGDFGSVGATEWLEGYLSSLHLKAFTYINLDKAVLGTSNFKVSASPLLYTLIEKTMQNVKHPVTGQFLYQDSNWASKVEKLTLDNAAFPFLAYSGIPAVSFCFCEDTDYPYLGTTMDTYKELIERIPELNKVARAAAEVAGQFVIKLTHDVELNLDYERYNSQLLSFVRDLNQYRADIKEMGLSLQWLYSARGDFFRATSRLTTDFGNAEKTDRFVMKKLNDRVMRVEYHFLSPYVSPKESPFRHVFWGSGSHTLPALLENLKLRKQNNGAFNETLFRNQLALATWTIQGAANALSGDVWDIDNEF

fold over CHO parental [1]: 442 fold
fold over isotype control (Cyno TfR ECD Avi-His): 1 fold
fold over isotype control [2]: 2 fold
fold over isotype control [3]: 40 fold
B1: TfR22 2+1 anti-TfR bispecific antibody (bispecific antibody, human IgG1, kappa)
heavy 1: EVRLLESGGGLVQPGGSLRLSCAASGFTFSNYAMGWVRQAPGKGLEWVSAISGSGGSTYYADSVKGRFTTSRDDSKNALYLQMNSLRAEDTAVYYCARGGPGWYAADVWGQGTTVTVSSASTKGPSVFPLAPSSKSTSGGTAALGCLVKDYFPEPVTVSWNSGALTSGVHTFPAVLQSSGLYSLSSVVTVPSSSLGTQTYICNVNHKPSNTKVDKKV[here human IgG1 Fc with changes without letters]GGGGSGGGGSGGGGSDVQLQESGPGLVKPSQSLSLTCTVTGYSITSDYAWNWIRQFPGNKLEWMGYISYSGSTRYNPSLKSRISITRDTSKNQFFLQLNSVTTEDTATYYCTSWGYRYLEDYWGQGTSVTVSAGGSEGKSSGSGSESKSTGGSQIVLTQSPAIMSASPGERVTMTCSASSSISSMHWYQQKPGTSPKKWIYDTSKLASGVPARFSGSGSGTSYSLTISSMEAEDAATYYCHQRSSYPWTFGGGTKLEIK
heavy 2: EVRLLESGGGLVQPGGSLRLSCAASGFTFSNYAMGWVRQAPGKGLEWVSAISGSGGSTYYADSVKGRFTTSRDDSKNALYLQMNSLRAEDTAVYYCARGGPGWYAADVWGQGTTVTVSS[here human IgG1 constant region with changes without letters]
light: DIQMTQSPSSLSASVGDRVTITCRASQSISSYLNWYQQKPGKAPKLLIYAASSLQSGVPSRFSGSGSGTDFTLTISSLQPEDFATYYCQQADLPAFAFGGGTKVEIKRTVAAPSVFIFPPSDEQLKSGTASVVCLLNNFYPREAKVQWKVDNALQSGNSQESVTEQDSKDSTYSLSSTLTLSKADYEKHKVYACEVTHQGLSSPVTKSFNRGEC
notes: 2+1

fold over CHO parental [1]: 2 fold
fold over isotype control (Cyno TfR ECD Avi-His): 1 fold
fold over isotype control [2]: 1 fold
fold over isotype control [3]: 1 fold
B2: TfR21 2+1 anti-TfR bispecific antibody (bispecific antibody, human IgG1, kappa)
heavy 1: EVRLLESGGGLVQPGGSLRLSCAASGFTFSNYAMGWVRQAPGKGLEWVSAISGSGGSTYYADSVKGRFTTSRDDSKNALYLQMNSLRAEDTAVYYCARGGPGWYAADVWGQGTTVTVSSASTKGPSVFPLAPSSKSTSGGTAALGCLVKDYFPEPVTVSWNSGALTSGVHTFPAVLQSSGLYSLSSVVTVPSSSLGTQTYICNVNHKPSNTKVDKKV[here human IgG1 Fc with changes without letters]GGGGSGGGGSGGGGSQVQLQQPGSELVRPGASVKLSCKASGYTFTSYWTHWVKQRPGQGLEWIGNIYPGSGSSNYDEKFKSKATLTVDTSSSTAYMQLSSLTSEDSAVYFCTRSSYYGNFDTMDNWGQGTSVTVSSGGSEGKSSGSGSESKSTGGSDIQMTQSPASLSASVGETVTITCRASEYINSYLAWYQQKQGKSPQLLVFKEKTLAEGVPSRFSGSGSGTQFSLKINSLQPEDFGSYYCQHHYGNPWTFGGGTKLEIK
heavy 2: EVRLLESGGGLVQPGGSLRLSCAASGFTFSNYAMGWVRQAPGKGLEWVSAISGSGGSTYYADSVKGRFTTSRDDSKNALYLQMNSLRAEDTAVYYCARGGPGWYAADVWGQGTTVTVSS[here human IgG1 constant region with changes without letters]
light: B1 light
notes: 2+1

fold over CHO parental [1]: 65 fold
fold over isotype control (Cyno TfR ECD Avi-His): 1 fold
fold over isotype control [2]: 2 fold
fold over isotype control [3]: 1 fold
B3: TfR20 2+1 anti-TfR bispecific antibody (bispecific antibody, human IgG1, kappa)
heavy 1: EVRLLESGGGLVQPGGSLRLSCAASGFTFSNYAMGWVRQAPGKGLEWVSAISGSGGSTYYADSVKGRFTTSRDDSKNALYLQMNSLRAEDTAVYYCARGGPGWYAADVWGQGTTVTVSSASTKGPSVFPLAPSSKSTSGGTAALGCLVKDYFPEPVTVSWNSGALTSGVHTFPAVLQSSGLYSLSSVVTVPSSSLGTQTYICNVNHKPSNTKVDKKV[here human IgG1 Fc with changes without letters]GGGGSGGGGSGGGGSDVQLQESGPGLVKPSQSLSLTCTVTGYSITSDHAWNWIRQFPGNKLEWMGYISYSGSSSYNPSLKSRISITRDTSKNQFFLQLNSVTTEDTATYYCARSGWGMDYWGQGTSVTVSSGGSEGKSSGSGSESKSTGGSDIQMTQSPASLSASVGETVTITCRASEYINSYLAWYQQKQGKSPQLLVFKEKTLAEGVPSRFSGSGSGTQFSLKINSLQPEDFGSYYCQHHYGNPWTFGGGTKLEIK
heavy 2: EVRLLESGGGLVQPGGSLRLSCAASGFTFSNYAMGWVRQAPGKGLEWVSAISGSGGSTYYADSVKGRFTTSRDDSKNALYLQMNSLRAEDTAVYYCARGGPGWYAADVWGQGTTVTVSS[here human IgG1 constant region with changes without letters]
light: B1 light
notes: 2+1

fold over CHO parental [1]: 383 fold
fold over isotype control (Cyno TfR ECD Avi-His): 5 fold
fold over isotype control [2]: 1 fold
fold over isotype control [3]: 41 fold
B4: TfR31 2+1 anti-TfR bispecific antibody (bispecific antibody, human IgG1, kappa)
heavy 1: EVRLLESGGGLVQPGGSLRLSCAASGFTFSNYAMGWVRQAPGKGLEWVSAISGSGGSTYYADSVKGRFTTSRDDSKNALYLQMNSLRAEDTAVYYCARGGPGWYAADVWGQGTTVTVSSASTKGPSVFPLAPSSKSTSGGTAALGCLVKDYFPEPVTVSWNSGALTSGVHTFPAVLQSSGLYSLSSVVTVPSSSLGTQTYICNVNHKPSNTKVDKKV[here human IgG1 Fc with changes without letters]GGGGSGGGGSGGGGSDVQLQESGPGLVKPSQSLSLTCTVTGYSITSDYAWNWIRQFPGNKLEWMGYISYSGRTSYNPSLKSRISFTRDTSKNQFFLQLNSVTTEDTATYYCAGWGYRYLEDYWGQGTSVTVSSGGSEGKSSGSGSESKSTGGSQIVLTQSPAIMSASPGEKVTMTCSASSSISSMHWYQLKPGTSPKKWIYDTSKLASGVPARFSGSGSGTSYSLTISSMEAEDAATYYCHQRSSYPWTFGGGTKLEIK
heavy 2: EVRLLESGGGLVQPGGSLRLSCAASGFTFSNYAMGWVRQAPGKGLEWVSAISGSGGSTYYADSVKGRFTTSRDDSKNALYLQMNSLRAEDTAVYYCARGGPGWYAADVWGQGTTVTVSS[here human IgG1 constant region with changes without letters]
light: B1 light
notes: 2+1
